Molecular target: T1, recombinant domain A2 of human tenascin-C (human, UniProt P24821 1161-1255, biotinylated (EZ-link sulfo-NHS-SS-biotin) for ELISA and BIAcore)
T1 construct: Expressed in E. coli TG-1 from pQE12 and purified on Ni-NTA; also called A2 domain; recombinant antigen A2; not shown: C-terminal His-tag and residues from the pQE12 vector
T1 sequence: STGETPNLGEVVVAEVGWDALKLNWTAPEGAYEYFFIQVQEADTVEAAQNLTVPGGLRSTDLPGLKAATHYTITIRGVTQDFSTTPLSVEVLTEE
Assay: SPR (BIAcore 3000), biotinylated A2 domain on streptavidin chip, monomeric scFv injected

Kd: ~1180 nM
B1: scFv C12 (scFv)
scFv: [sequence of about 100 residues omitted]QARRSFDYWGQGTLVTVSSGGGGSGGGGSGGGGSSELTQDPAVSVALGQTVRITCQGDSLRSYYASWYQQKPGQAPVLVIYGKNNRPSGIPDRFSGSSSGNTASLTITGAQAEDEADYYCNSSGISMSPVVFGGGTKLTVLGAAAEQKLISEEDLNGAA
notes: Human scFv from the ETH2-Gold library, with DP47 heavy chain and DPL16 light chain; It was purified on protein A and injected as monomer in BIAcore; also called C12 antibody; anti-A2 antibody C12

— patent publication WO2009089998A1 (dated 2009)
